In all, about 150,000 compounds went through this assay and about 540 (0.36%) showed an effect of 50% or more. Some of the results follow.

The record followed here is ChEMBL document CHEMBL4888484, “Replenishing the malaria drug discovery pipeline: Screening and hit evaluation of the MMV Hit Generation Library 1 (HGL1) against asexual blood stage Plasmodium falciparum ,using a nano luciferase reporter read-out” (2022).

The assay has as its system Plasmodium falciparum. The assay is described as follows: Primary screen in NF54 nanoGlo assay, in single point, at 2uM, 72h; a lower Z score goes with more inhibition. It counts as functional, Erythrocyte. The settings on record: timepoint 72 hour.
As a reminder, the % Inhibition is the change of the read-out against control, counted positive when it falls. In the case of `O=C(COc1ccc(Cl)cc1)NCc1cccnc1-c1ccco1`, the “% Inhibition” value is -12% and the Z score was 2.21.

Turning to `O=C(NCCN1CCOCC1)c1cn(Cc2cccc(F)c2)nc1OCc1cccc(F)c1`, the “% Inhibition” value is given as -4% and the Z score is given as 0.46.

For the molecule `CCc1nc(C2CCN([C@@H](C)C(=O)Nc3cc(Cl)ccc3OC)CC2)n[nH]1`, the “% Inhibition” value was found to be 2% and the Z score was -0.29.

For the molecule `COc1ccc(C(=O)NCc2c(C)noc2C)cc1OC1CCN(C(C)C)CC1`, the “% Inhibition” value is -18% and the Z score is 2.02.

For the molecule `CCn1cc(S(=O)(=O)NCc2noc([C@@H]3CCCO3)n2)cn1`, the “% Inhibition” value is listed as -2% and the Z score came to 0.4.

As to `O=C(Nc1ccc(-n2cccc(C(=O)NCCCc3ccccc3)c2=O)cc1)c1ccc(F)cc1`, the “% Inhibition” value is 4% and the Z score is reported as -0.55.

Regarding `CC1CN(C(=O)CS(=O)(=O)C(C)C)CC(C2CC2)O1` (centres undefined), the “% Inhibition” value is 1% and the Z score is reported as -0.15.

Take `O=C(NCC1CC2CCC1C2)c1cnc2[nH]c(=O)[nH]c2c1` (centres undefined): the “% Inhibition” value was determined as 5% and the Z score was -0.87.

On to `COc1ccc(N(CCC(=O)Nc2ccn(C)n2)S(=O)(=O)c2ccc(C)cc2C)cc1`, for which the “% Inhibition” value was -3% and the Z score is on record as 0.49.

For the molecule `CN(Cc1ccccc1F)C(=O)[C@H]1CC[C@H](Nc2ncccn2)CC1`, the “% Inhibition” value is listed as -14% and the Z score stood at 2.31.

Turning to `CCCCn1c(C)c(CC(=O)NCc2ccncn2)c2c1CCCC2=O`, the “% Inhibition” value is recorded as 0% and the Z score is reported as 0.05.

`CN(C(=O)[C@H]1CCCO1)c1ncc(Br)s1`: the “% Inhibition” value is listed as 5% and the Z score is listed as -0.61.

As to `CS(=O)(=O)C1CN(C(=O)c2cc(Br)co2)C1`, the “% Inhibition” value was -7% and the Z score was found to be 1.13.

On to `COc1cccc(Cl)c1CC(=O)Nc1ncc(C)[nH]1`, for which the “% Inhibition” value is recorded as 1% and the Z score is given as -0.09.

As for `O=c1[nH]c(-c2ccc(Cl)cc2)c[n+]2ccccc12`, the “% Inhibition” value is -16% and the Z score was found to be 1.87.

Consider `O=C(Nc1cccn2c(C3CCC3)nnc12)c1ccc(Cl)s1`, for which the “% Inhibition” value is -4% and the Z score is 0.69.

In the case of `COc1cc(OC)cc(C(=O)Nc2cc(-c3cc(C)n(-c4ccc(F)cc4)c3C)nn2-c2ccccc2)c1`, the “% Inhibition” value worked out at 3% and the Z score is -0.55.

In the case of `Nc1nc(CNC(=O)CCC(=O)c2cccc3ccccc23)cs1`, the “% Inhibition” value is recorded as -15% and the Z score was 1.77.

On to `CCc1nc2ccccc2n1[C@@H](CC)C(=O)NCCCn1cnnc1`, for which the “% Inhibition” value is given as -14% and the Z score came out at 1.86.

On to `C=C(C)Cn1c(Cc2cccnc2)nnc1N1CCO[C@H](C(C)C)C1`, for which the “% Inhibition” value is recorded as -7% and the Z score is 0.96.

In the case of `O=C(NCC1CCN(C(=O)c2ccc[nH]2)CC1)C1CCCCC1`, the “% Inhibition” value is on record as 3% and the Z score is -0.5.

Turning to `C[C@H](Oc1cc(Cl)cc(Cl)c1)C(=O)NCc1cc[nH]n1`, the “% Inhibition” value is listed as -2% and the Z score came to 0.29.

Turning to `Cc1cnc(C(=O)Oc2ccc(-c3ccccc3)cc2)cn1`, the “% Inhibition” value was determined as 3% and the Z score was -0.27.

`CCOc1cccc(CN(C)c2cnn(C)c2)n1`: the “% Inhibition” value was -5% and the Z score stood at 0.53.

As for `CN(C)Cc1ccc(-c2nc(-c3ccccc3)nn2C2CCN(C)CC2)o1`, the “% Inhibition” value was determined as 4% and the Z score was -0.43.

Turning to `NC(=O)c1cc(CCOCc2ccccc2)ccc1F`, the “% Inhibition” value was 0% and the Z score is 0.04.

Consider `Fc1ccccc1[C@@H](NCc1cc[nH]n1)C1CCCC1`, for which the “% Inhibition” value is -9% and the Z score is 0.81.

On to `Cc1cc(S(=O)(=O)NC(=O)C2(C)COC2)c(C)o1`, for which the “% Inhibition” value stood at 6% and the Z score was -0.73.

`COc1ccc(CN2C(=O)COC[C@H]2C(=O)N2CCN(C)CC2)c(OC)c1`: the “% Inhibition” value is given as 0% and the Z score is recorded as -0.08.

For the molecule `Cn1ccc([C@@H]2CCCCN2C(=O)c2cc3c(s2)CCCC3)n1`, the “% Inhibition” value is reported as -7% and the Z score is given as 1.25.

Regarding `O=C(c1nccc2ccccc12)N1CCC[C@H](c2nnc3n2CCN(C2CCCC2)C3)C1`, the “% Inhibition” value is recorded as -18% and the Z score was determined as 3.55.

Consider `CCN=C(NCCc1ccccn1)N(C)Cc1cccs1`, for which the “% Inhibition” value is on record as -7% and the Z score is listed as 0.7.

As for `Cc1ncnc(N2CCN(C(=O)c3cc(CC(C)C)[nH]c(=O)n3)CC2)c1C`, the “% Inhibition” value is given as -11% and the Z score is 2.15.

Turning to `C/C(=C\c1ccccc1)C(=O)N1CC[C@@H](c2ccccc2)S(=O)(=O)CC1`, the “% Inhibition” value was -1% and the Z score is reported as 0.14.

With `CC(C)c1noc(NC2C3CCOC3C2(C)C)n1` (centres undefined), the “% Inhibition” value is given as -6% and the Z score was 0.8.

`c1cc2c(c(OCc3nnc4n3CCCCC4)c1)OCCO2`: the “% Inhibition” value was -22% and the Z score is 2.03.

Regarding `O=C(CCCN1CCCC1=O)NCc1cccnc1N1CCCCCCC1`, the “% Inhibition” value was -9% and the Z score was found to be 1.24.

On to `Cc1ccc(NC(=O)COC(=O)C2CC(O)CN2C(=O)Cc2ccccc2F)cc1` (centres undefined), for which the “% Inhibition” value was -3% and the Z score is recorded as 0.38.

With `CCN1CC(=O)N[C@H]2CN(C(=O)c3cc(C)on3)CC[C@@H]2OCc2cccc(c2)Oc2cc(OC(C)C)cc(c2)C1=O`, the “% Inhibition” value is listed as 13% and the Z score was -1.77.

In the case of `O=C(NCCc1ccccc1)Nc1ccccc1-c1cc2ccccc2[nH]1`, the “% Inhibition” value came to 3% and the Z score was -0.51.

In the case of `COCCN(C[C@@H]1CC=CCC1)C(=O)c1ccncc1`, the “% Inhibition” value was -14% and the Z score was found to be 1.57.

On to `Cc1cnc(C2CC2)n1CC1CCN(C(=O)COCc2ccccc2)CC1`, for which the “% Inhibition” value was -11% and the Z score came out at 1.5.
